Experimental data published in PubChem BioAssay AID686978 (National Center for Advancing Translational Sciences (NCATS), 2013).
Among all 420,000 compounds or so, about 64,000 (15%) were called active. Inconclusive results, whose numbers are uncertain, are shown with a selection of clear calls. The call rests on the fitted dose curve; in most records, active means well fitted inhibition curve with a large enough effect; inconclusive means small, poorly fitted or top-dose-only effect; inactive means flat fitted curve, though single readings scatter. Potencies of inconclusive entries are left out as doubtful fits.
On the % scale 0 is the no-effect control and ±100 the full control effect; potency means the concentration at half of the fitted maximal effect; tags describe the fitted curve by direction and shape.

Assay: qHTS for Inhibitors of human tyrosyl-DNA phosphodiesterase 1 (TDP1): qHTS in cells in absence of CPT; further: nearly all actives have a fitted effect of over 55% in size
Conditions: DT40 Tdp1-/- hTDP1 cells, no CPT, ATP luminescence, 48 h; activity change, negative = growth inhibition: at 46.2 µM (top of the series) unless noted
Outline: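 Growth kinetics read by CellTiter-Glo luminescence after ≥48 hr at 37 °C. Cells: DT40 Tdp1-/- stably carrying human TDP1, 400 per well, compound exposure in the absence of CPT (DMSO vehicle).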
For `O=c1[nH]cnc2c1ncn2[C@@H]1O[C@H](COS(=O)(=O)O)[C@@H](O)[C@H]1O`, the Potency was inconclusive [inhibitor, partial curve].
For `Cc1ccc(-c2nc3cccc(C)n3c2Nc2ccc3c(c2)OCO3)o1`, the Potency was inconclusive [inhibitor, single point].
In the case of `Cc1ccc2nc(-c3ccc(SCC(=O)Nc4cc(C)on4)nc3)[nH]c2c1`, the Potency is reported as inconclusive [inhibitor, single point].
With `O=C(Cn1cnc2c(nnn2Cc2ccc(Cl)cc2)c1=O)NCc1ccco1` the Potency was inconclusive [inhibitor, single point].
For `CC(Sc1nnc(COc2ccc(Cl)cc2)n1Cc1ccco1)C(=O)N1CCNC1=O` (configuration not stated), the Potency was inconclusive [inhibitor, single point].
With `COc1cc(CC(=O)NC(c2ccccc2)c2ccccc2)cc(OC)c1OC` the Potency was active: 13 µM.
For `O=C(N1CCN(Cc2ccc3c(c2)OCO3)CC1)C(Cl)(Cl)Cl`, the “activity change, negative = growth inhibition” value was inactive: -12.8%.
With `O=C1c2oc3ccccc3c(=O)c2C(c2cccc(Br)c2)N1Cc1ccco1` (configuration not stated) the Potency was inconclusive [inhibitor, partial curve].
For `CCOc1ccccc1C(=O)N1CCc2cc(OC)c(OC)cc2C1COc1ccc(OC)cc1` (configuration not stated), the Potency was active: 20.6 µM.
In the case of `CCCn1nc(NC(=O)C(C)C)c2cc3cc(OC)ccc3nc21`, the Potency is reported as inconclusive [inhibitor, single point].
For `O=c1c2cc([N+](=O)[O-])ccc2sn1-c1ccccc1`, the Potency was active: 2.91 µM.
In the case of `COc1ccc(C(=O)NCCc2nnc3n2CCN(CC2CC=CCC2)CC3)cc1` (configuration not stated), the “activity change, negative = growth inhibition” value is reported as inactive: -8%.
With `CC(CCc1ccccc1)NC(=S)NC1CCCCC1` (configuration not stated) the Potency was inconclusive [inhibitor, single point].
With `CC(C)CCOc1ccc(C(CC(N)=O)C(=O)O)cc1` (configuration not stated) the “activity change, negative = growth inhibition” value was inactive: 6.49%.
In the case of `CCOc1ccc(NC(=O)c2ccc(NC(=O)c3cn4c5c(c(N6CCN(C)CC6)c(F)cc5c3=O)OCC4C)cc2)cc1` (configuration not stated), the Potency is reported as active: 4.61 µM.
For `COc1ccc(OCCC(=O)OCC(=O)NC2CCCCCCC2)cc1`, the “activity change, negative = growth inhibition” value was inactive: 4.17%.
In the case of `Cc1ccccc1C(=O)O/N=C(\N)Cc1cccs1`, the “activity change, negative = growth inhibition” value is reported as inactive: -21.8%.
For `Cc1ccc(CC(=O)Nc2cccc(C(=O)Nc3c(C)n(C)n(-c4ccccc4)c3=O)c2)cc1C`, the Potency was inconclusive [inhibitor, single point].
For `COC(=O)C(Cc1ccc(O)cc1)NC(=O)C(CC(=O)OC(C)(C)C)NC(=O)OC(C)(C)C` (configuration not stated), the “activity change, negative = growth inhibition” value was inactive: 11.7%.
For `COc1ccccc1N=c1oc2cc(O)ccc2cc1C(N)=O`, the Potency was inconclusive [inhibitor, partial curve].
In the case of `NS(=O)(=O)c1ccc(NCc2cnc3ccccc3n2)cc1`, the Potency is reported as inconclusive [inhibitor, single point].
For `COc1ccccc1N(CC(O)Cn1ccnc1C)S(=O)(=O)c1ccccc1` (configuration not stated), the “activity change, negative = growth inhibition” value was inactive: -16%.
In the case of `NS(=O)(=O)c1ccc2nc(-c3ccccc3)c(-c3ccccc3)nc2c1`, the “activity change, negative = growth inhibition” value is reported as inactive: -7.74%.
With `N#Cc1c(NC(=O)CSc2nnnn2C2CCCCC2)sc2c1CCCC2` the Potency was active: 16.4 µM.
In the case of `Cc1ccn2c(=O)nc(SCC(=O)Nc3cccc4ccccc34)nc2c1`, the Potency is reported as inconclusive [inhibitor, single point].
With `COCCCn1c(SCC(=O)Nc2ccc(OC)cc2)nc2c(sc3ccccc32)c1=O` the “activity change, negative = growth inhibition” value was inactive: -4.25%.
With `O=C(CSc1nc(=O)n(CCN2CCOCC2)c2c1CCC2)Nc1ccc(F)cc1F` the “activity change, negative = growth inhibition” value was inactive: -7.42%.
With `COc1ccc(CNc2ccc(C)cc2)cc1Br` the Potency was inconclusive [inhibitor, single point].
For `CC(C)CC(=O)Nc1ccc2nc(SCC(=O)N3CCOCC3)sc2c1`, the Potency was inconclusive [inhibitor, partial curve, poor fit].
With `O=C(c1cc(-c2ccc(Br)cc2)n[nH]1)N1CCN(S(=O)(=O)c2ccc(Cl)s2)CC1` the Potency was inconclusive [inhibitor, partial curve, poor fit].
For `O=C(CCCN1C(=O)c2cccc3cccc(c23)C1=O)N1CCN(Cc2ccc3c(c2)OCO3)CC1`, the Potency was inconclusive [inhibitor, single point].
In the case of `Cc1ccc(CNC(=O)C(C)C2Sc3ccccc3NC2=O)cc1` (configuration not stated), the “activity change, negative = growth inhibition” value is reported as inactive: -9.7%.
For `O=C1Nc2ccccc2N(O)N1c1cc(-c2ccccc2)[nH]n1`, the “activity change, negative = growth inhibition” value was inactive: 6.27%.
With `O=c1ccnc(Nc2ccc(Cl)cc2)[nH]1` the Potency was inconclusive [inhibitor, full curve].
In the case of `O=C(N/N=C/c1ccc(-c2ccccc2[N+](=O)[O-])o1)c1cccnc1`, the Potency is reported as inconclusive [inhibitor, single point].
With `Cc1csc(=Nc2ccccc2)n1CCO` the “activity change, negative = growth inhibition” value was inactive: 7.06%.
In the case of `Nc1ncnc2c1CCC2`, the Potency is reported as inconclusive [inhibitor, full curve, poor fit].
With `CC(=O)N1C(=O)/C(=C2\SC(=S)N(NS(=O)(=O)c3ccc(C)cc3)C2=O)c2ccccc21` the “activity change, negative = growth inhibition” value was inactive: 15.9%.
For `CCN(c1ccccc1)S(=O)(=O)c1ccc(OC)c(NC(=O)c2cccs2)c1`, the Potency was inconclusive [inhibitor, full curve, poor fit].
In the case of `CC(O)[C@H]1CNCCN1CCc1cc(C(F)(F)F)cc(C(F)(F)F)c1` (some centres not stated), the Potency is reported as inconclusive [inhibitor, single point].
With `Cc1nn(Cc2ccccc2)c2sc(C(=O)N3CCN(Cc4ccc5c(c4)OCO5)CC3)cc12` the Potency was inconclusive [inhibitor, single point].
With `CCOC(=O)c1nn(-c2ccccc2)c(-c2ccccc2)c1C(=O)c1ccccc1` the Potency was inconclusive [inhibitor, single point].
For `COc1cnc(N(C)C)nc1Sc1ccc(Cl)cc1`, the “activity change, negative = growth inhibition” value was inactive: -11%.
In the case of `COc1cc(CN(C(C)=O)c2ccccc2C(=O)O)ccc1[N+](=O)[O-]`, the “activity change, negative = growth inhibition” value is reported as inactive: -1.95%.
In the case of `COC(=O)c1c(C(=O)OC)c2cccc3cc(-c4ccccc4)c4ccc1c4n32`, the Potency is reported as inconclusive [inhibitor, single point].
For `CCC(=O)Nc1nnc(SCCOC)s1`, the “activity change, negative = growth inhibition” value was inactive: -2.32%.
For `COc1ccc(OCC(=O)Nc2cc(NC(=O)c3ccco3)ccc2OC)cc1`, the Potency was inconclusive [inhibitor, partial curve, poor fit].
For `CNC(=O)c1c(NC(=O)CCS(=O)(=O)c2ccc(C)cc2)sc2c1CCN(C(=O)OC)C2`, the Potency was inconclusive [inhibitor, single point].
In the case of `CCCn1c(=O)n(C)c(=O)c2c(SCC(=O)Nc3cc(C)on3)nc(C(C)(C)C)nc21`, the Potency is reported as inconclusive [inhibitor, partial curve].
In the case of `O=C(Cn1cc(C(=O)C(F)(F)F)c2cc(Br)ccc21)N1CCOCC1`, the Potency is reported as inconclusive [inhibitor, single point].
For `COc1ccc(C(=O)Nc2ccccc2C(=O)NC2CC2)c(OC)c1OC`, the Potency was inconclusive [inhibitor, single point].
In the case of `Cc1nn2c(NC(C)C)c3c(nc2c1-c1ccccc1)CCC3`, the Potency is reported as inconclusive [inhibitor, single point].
For `COc1ccccc1-c1nnc(Sc2nc([N+](=O)[O-])nn2C)o1`, the Potency was active: 16.4 µM.
In the case of `COc1ccc(S(=O)(=O)N2CCc3ccccc32)cc1C(=O)Nc1ccc(C(N)=O)cc1`, the Potency is reported as inconclusive [inhibitor, single point].
For `CCN(CC)C(=O)COC(=O)C1=NN(c2cc(C)ccc2C)C(=O)CC1`, the “activity change, negative = growth inhibition” value was inactive: -1.13%.
With `CCOc1ccc(N2CC(C(=O)NCC(=O)Nc3ccc(F)c(F)c3F)CC2=O)cc1` (configuration not stated) the “activity change, negative = growth inhibition” value was inactive: 20.6%.
With `CC(=O)c1ccc(NC(=O)c2cn(-c3ccccc3)nc2-c2ccncc2)cc1` the Potency was inconclusive [inhibitor, single point].
For `Clc1ncccc1-c1nc2ccccc2s1`, the “activity change, negative = growth inhibition” value was inactive: -10.1%.
With `CC(=O)Nc1ccc(SCC(=O)NCC2(N3CCCCC3)CCCCC2)cc1` the Potency was inconclusive [inhibitor, partial curve].
In the case of `COc1ccccc1Nc1nc(Cl)c(C=O)s1`, the Potency is reported as inconclusive [inhibitor, single point].
For `COc1cc(NC(=O)CCN2C(=O)NC3(CCCC3)C2=O)c(OC)cc1Cl`, the “activity change, negative = growth inhibition” value was inactive: 0.856%.
For `COc1c2c(cc3occ(-c4ccc5c(c4)OCO5)c(=O)c13)OC(C)(C)C=C2`, the Potency was inconclusive [inhibitor, single point].
In the case of `CSc1nc(N(C)NC(=O)c2ccc(Cl)cc2)c2ccccc2n1`, the Potency is reported as active: 0.326 µM.
With `CCOC(=O)c1c(C)[nH]c(C(=O)OCC(=O)c2ccc3c(c2)NC(=O)CO3)c1C` the “activity change, negative = growth inhibition” value was inactive: -21.6%.
With `Cn1c(=O)c2c(nc(N3CCOCC3)n2Cc2ccccc2F)n(C)c1=O` the Potency was inconclusive [inhibitor, partial curve].
For `CN(Cc1ccc(Cl)c(Cl)c1)C(=O)C1CSC2(C)CCC(=O)N12` (configuration not stated), the Potency was active: 14.6 µM.
In the case of `COC(=O)N/N=C/c1cc(C)n(-c2ccc(Br)cc2)c1C`, the activity change, negative = growth inhibition is reported as inconclusive: -31% [inhibitor].
For `COc1ccc(C(CNC(=O)CCNS(=O)(=O)c2ccc(Br)cc2)N2CCCC2)cc1` (configuration not stated), the Potency was inconclusive [inhibitor, single point].
For `Cc1ccc2nc(SCC(=O)NCC3Cc4cccc(-c5nc(C)cnc5C)c4O3)[nH]c2c1` (configuration not stated), the “activity change, negative = growth inhibition” value was inactive: -5.68%.
For `COc1ccc(-c2oc3ccc(-c4cc(OC)c(OC)c(OC)c4)cc3c2C#Cc2ccsc2)cc1`, the Potency was inconclusive [inhibitor, single point].
For `Clc1ccc(OCc2nn3c(C4CCCCC4)nnc3s2)c(Cl)c1`, the Potency was inconclusive [inhibitor, partial curve].
For `O=C(CSc1nc2ncccc2o1)Nc1ccc(Cl)cc1F`, the Potency was inconclusive [inhibitor, single point].
